Assay results as given in PubChem BioAssay (NCI).
Values joined by “and” are separate entries in the source; they are usually repeats but may differ in a detail not shown here. Equal values may be shown once.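 Five concentrations, 48 hours, 96-well plates. At the GI50, growth is halved. TGI: total growth inhibition.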 Numbered stars: 1 amine (or outer) side, 2 acyl side, 3 side chain; on linkers, the order of the positions; unused ones are H or OH. Bridge positions count the residues as written; N and C are the ends. Square brackets hold non-standard residues; d marks the D form. Peptide text beside a SMILES is read from it. * marks the point of attachment. X35 = CC[C@H](C)[C@@H](N[*:1])[C@@H](O)CC(=O)[*:2]; NMeY = CN[C@@H](Cc1ccc(O)cc1)C(=O)O; dNMeL = CN[C@H](CC(C)C)C(=O)O; Hiv = CC(C)[C@H](O)C(=O)O; Pyruvoyl = CC(=O)C(=O)*

These compounds were tested on NCI-H322M lung (assay: DTP human tumour cell line panel, 48 h).

Row | SMILES | GI50 | TGI
1 | N#Cc1ncc(/N=C/c2ccc(N(CCCl)CCCl)cc2)s1 | > 100 µM | > 100 µM
2 | CCC[CH2][Sn]([CH2]CCC)([O]C(C)=O)[O]C(C)=O | 1.83 µM | 3.6 µM
3 | c1ccc(Nc2nnc(CSc3nc(-c4ccccc4)c(-c4ccccc4)[nH]3)s2)cc1 |  | 94.8 µM
4 | CC(C)(C(=O)NN)c1ccccc1 |  | > 100 µM
5 | CC(C)=CCCC1(C)C=Cc2c(c(C)cc3c2[nH]c2cc(O)ccc23)O1 (stereo unspecified) |  | > 25 µM
6 | COc1cc2c(/C=C3/C(=O)Nc4ccc(Cl)cc43)c(Cl)n(Cc3ccccc3)c2cc1C |  | 4.93 µM
7 | CCOC(=O)Cc1c[nH]c(=S)[nH]c1=O | > 100 µM | > 100 µM
8 | COC12C=CC(CC1)c1c(O)ccc(O)c12 (stereo unspecified) |  | > 100 µM
9 | NS(=O)(=O)c1cc2c(cc1Cl)NC(C(=O)c1cc(=O)c3ccc(O)cc3o1)=NS2(=O)=O |  | > 100 µM
10 | COC(=O)[C@H](Cc1ccccc1)NC(=O)NCCN(CCNC(=O)N[C@@H](Cc1ccccc1)C(=O)OC)C(=O)N[C@@H](Cc1ccccc1)C(=O)OC |  | 36.6 µM
11 | C=CCONC(=O)c1ccc(Cl)cc1 |  | > 100 µM
12 | CC(C)(O)c1ccc(N2CCN(c3nnc(Cc4ccccc4)c4ccccc34)CC2)nc1 | 8.57 µM | 23 µM
13 | CCn1c(-c2nonc2N)nc2cncc(C(=O)N3CCNCC3)c21 | > 25 µM | > 25 µM
14 | O=C(Nc1cccc(Cl)c1)Nc1ncc(CCNc2ncnc3ccsc23)s1 | 12.3 µM and > 10 µM | 26 µM and > 10 µM
15 | CC12CCC=CC1CCC1C2CCC2(C)C(c3ccc(=O)oc3)CCC12O (stereo unspecified) | 0.0988 µM | 0.722 µM
16 | Nc1nc(/C=C\c2ccc([N+](=O)[O-])o2)nc(N2CCN(c3ccccc3)CC2)n1 | 8.48 µM | 38.4 µM
17 | Cc1occc1C(=S)Nc1ccc(Cl)c(C(=O)OCC(F)(F)F)c1 |  | 78.1 µM
18 | O=C(NO)c1ccc([N+](=O)[O-])cc1 |  | > 100 µM
19 | OCC1OC(n2ccc3c2ncn2ncnc32)C(O)C1O (stereo unspecified) | 2.79 µM | > 92.7 µM
20 | COc1cc(OCc2ccc3nc(-c4ccccc4)c(N)nc3c2)cc(OC)c1OC |  | 45.4 µM
21 | CN(C(=O)C12C3C4C1C1C2C3C41I)C(C)(C)C (stereo unspecified) |  | > 100 µM
22 | CC12CCC(=O)C(O1)C1C(=O)c3cc4ccccc4cc3C(=O)C12 (stereo unspecified) | 28.1 µM | 92.6 µM
23 | Cc1c2ccncc2cc2c1sc1ccncc12 |  | 14.6 µM
24 | CCc1ccc(NC(=O)Nc2c[nH]c3ccccc23)cc1 | 35.1 µM | > 80.6 µM
25 | C=C(C)[C@@H]1CC=C(CO)CC1 | > 10 µM | > 10 µM and 956 µM

Row | SMILES | GI50 | TGI
26 | CC12CCC(=O)C=C1CCC1C2CCC2(C)C(C(=O)Cn3cnc4c(=S)nc[nH]c43)CCC12 (stereo unspecified) |  | > 100 µM
27 | CCN=C1C=CC(=C(c2ccc(N(C)C)cc2)c2ccc(N(C)C)cc2)c2ccccc21 | 0.17 µM | 0.601 µM
28 | CCOC(=O)CCC(NC(=O)Cc1ccc(Nc2nc3ccccc3nc2-c2ccccc2)cc1)C(=O)OCC (stereo unspecified) |  | > 100 µM
29 | NC(=O)c1cc2ccccc2oc1=Nc1ccccc1 |  | > 100 µM
30 | CCc1ccc(NCc2cc(OC)c(OC)c(OC)c2)cc1 |  | > 100 µM
31 | COC(=O)c1[nH]c(=S)[nH]c(=O)c1-c1ccc(Cl)cc1 |  | > 50 µM
32 | COc1ccc(Br)c2c1CC(C(=O)O)CC2 (stereo unspecified) |  | > 100 µM
33 | O=C(O)C1C(C(=O)O)C2C(=O)C=CC1N2Cc1ccccc1 (stereo unspecified) |  | 23.8 µM
34 | O=C1c2ccccc2C(=O)N1CC1(C(=O)O)NCCS1(=O)=O (stereo unspecified) |  | > 100 µM
35 | Nc1cc(=O)[nH]c(SC2=NC(N)CC(O)C2)n1 (stereo unspecified) |  | > 100 µM
36 | COc1ccc(/C=C2\OC(=O)C(Cl)=C2c2ccc(OC)cc2)cc1 |  | > 100 µM
37 | CC(C)c1ccccc1SC1CC(=O)CC(Sc2ccccc2C(C)C)C12O[C@H](c1ccccc1)[C@@H](c1ccccc1)O2 (stereo partly specified) |  | > 100 µM
38 | O=C1CSC2(CC(/C=C/c3ccccc3O)=NN2c2cccc(S(=O)(=O)O)c2)N1c1nc2ccccc2s1 (stereo unspecified) |  | > 100 µM
39 | COC(=O)CCC(=O)N1Cc2cc(C)ccc2N(C(=O)CCC(=O)OC)Cc2cc(C)ccc21 |  | > 100 µM
40 | CN(C)CCCNC(=O)c1cc(NC(=O)CCNS(=O)(=O)c2ccc3c(c2)C(=O)c2ccccc2C3=O)cn1C | > 100 µM | > 100 µM
41 | COc1cc(Br)c(OC)c2c(OC)cc(C)cc12 |  | > 100 µM
42 | N#CC1(C#N)C2CCCCC23OC(=N)C1(C#N)C(c1ccco1)O3 (stereo unspecified) |  | > 100 µM
43 | CC[C@H](C)[C@H]1NC(=O)[C@@H](NC(=O)[C@@H](CC(C)C)N(C)C(=O)[C@@H]2CCCN2C(=O)C(C)=O)[C@@H](C)OC(=O)[C@H](Cc2ccc(OC)cc2)N(C)C(=O)[C@@H]2CCCN2C(=O)[C@H](CC(C)C)NC(=O)[C@H](C(C)C)OC(=O)C[C@@H]1O (Pyruvoyl-P[dNMeL]T[X35][Hiv]LP[NMeY](Me); ester 3-C) |  | 0.0448 µM
44 | C=C1C(=O)O[C@@H]2C1CC(=O)C(C)CC/C=C(\C)CCC[C@H](C)[C@H]2OC(C)=O (stereo partly specified) | 16.3 µM | 31.2 µM
45 | CC1(C)C(=O)N(O)C(C)(C)N1O |  | > 10 µM
46 | O=C(O)[C@@H]1C2CC([C@@H]1C(=O)O)[C@H](N1C(=O)CCC1=O)[C@@H]2Br (stereo partly specified) |  | > 100 µM
47 | O=C1CC(=O)NC(=NN2C(=O)CSC2c2ccc(Cl)c(Cl)c2)N1 (stereo unspecified) |  | > 100 µM
48 | CN(C)c1ccc2nc3ccc(=[N+](C)C)cc-3oc2c1 | 2.3 µM | 12 µM
49 | NC(=O)OCC(COc1ccc(Cl)cc1)OC(=O)c1ccccc1Cl (stereo unspecified) |  | > 100 µM
50 | Nc1ccn(C2CC(O)C(COP(O)(=S)OC3CC(n4ccc(N)nc4=O)OC3CO)O2)c(=O)n1 (stereo unspecified) |  | > 100 µM
